Data reported in patent US20180148485A1 (Pieris, published 2018).
Blank lines part the entries; values can stand above or below the binder they belong to.

Key:
[1] = molecular target: T1, recombinant human GPC3 (R&D Systems #2119-GP-050/CF) (human, UniProt P51654 25-559); assay: ELISA, GPC3 coated, anti-NGAL-HRP detection
T1 construct: also called Glypican-3; biotinylated human GPC3
Text: GPC3 was coated on a microtiter plate and the tested molecules were titrated. […] The data was fitted with a 1:1 binding model with EC50 value and the maximum signal as free parameters, and a slope that was fixed to unity.

[2] = molecular target: T2, recombinant human CD137-Fc fusion protein (#838-4B-100, R&D Systems) (human, UniProt Q07011 24-186); assay: ELISA, CD137-Fc coated, as described in Example 3
T2 construct: also called Fc-fusion of human CD137; not shown: Fc part of the bought fusion protein, not described
Text: (§1) The data was fitted with a 1:1 binding model with EC50 value and the maximum signal as free parameters, and a slope that was fixed to unity.

[3] = molecular target: T3, neonatal Fc receptor (FcRn, Sino Biologicals, #CT009-H08H) (UniProt P55899 part only; P61769 part only); assay: SPR, FcRn immobilised on CM5 chip, pH 6.0, steady state model
T3 construct: Covalently immobilised on a CM5 chip

[4] = molecular target: T2, recombinant human CD137-Fc fusion …; assay: SPR, biotinylated CD137-Fc captured on CAP chip, in analogy to Example 6
Protocol: Biotinlated CD137-Fc was immobilized on sensor chip and binding of the fusion polypeptides and lipocalin mutein was analyzed at different concentrations.

[5] = molecular target: T1, recombinant human GPC3 (R&D Systems …); assay: SPR, biotinylated GPC3 captured on CAP chip, 1:1 model, apparent affinity
Protocol: Biotinlated GPC3 was immobilized on a sensor chip and binding of the fusion polypeptides and lipocalin mutein was analyzed at different concentrations.

[6] = molecular target: T4, hFcγ RI/CD64 (R&D Systems) (human, UniProt P12314 16-288); assay: SPR, biotinylated fusion captured on CAP chip, receptor as analyte; Table 17 prints 'not determinable'
T4 construct: Soluble analyte in SPR; also called FcgRI
T4 sequence (P12314 16-288 limits assumed): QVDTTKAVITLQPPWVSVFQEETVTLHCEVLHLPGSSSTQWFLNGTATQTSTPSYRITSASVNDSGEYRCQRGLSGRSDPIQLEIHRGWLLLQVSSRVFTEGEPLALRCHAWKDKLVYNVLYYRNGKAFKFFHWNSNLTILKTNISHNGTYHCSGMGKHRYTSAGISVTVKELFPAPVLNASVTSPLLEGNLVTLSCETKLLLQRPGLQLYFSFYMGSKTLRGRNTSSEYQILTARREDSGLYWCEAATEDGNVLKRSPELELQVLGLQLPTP
Protocol: The excess of non-reacted biotin reagent was removed by loading the reaction mixture onto a Zeba™ Spin Desalting Plate (Thermo Scientific). The reference channel was loaded with Biotin CAPture Reagent only.
All measurements were performed at 25° C. […] Prior to the protein measurements three regeneration cycles were performed for conditioning purposes. Data were evaluated with Biacore T200 Evaluation software (V 2.0). Double referencing was used.

[7] = molecular target: T2, recombinant human CD137-Fc fusion …; assay: dual-binding ELISA: CD137-Fc coated, fusion titrated, biotinylated GPC3 detected with Extravidin-HRP
Text: as §1

T1 sequence (P51654 25-559 limits assumed): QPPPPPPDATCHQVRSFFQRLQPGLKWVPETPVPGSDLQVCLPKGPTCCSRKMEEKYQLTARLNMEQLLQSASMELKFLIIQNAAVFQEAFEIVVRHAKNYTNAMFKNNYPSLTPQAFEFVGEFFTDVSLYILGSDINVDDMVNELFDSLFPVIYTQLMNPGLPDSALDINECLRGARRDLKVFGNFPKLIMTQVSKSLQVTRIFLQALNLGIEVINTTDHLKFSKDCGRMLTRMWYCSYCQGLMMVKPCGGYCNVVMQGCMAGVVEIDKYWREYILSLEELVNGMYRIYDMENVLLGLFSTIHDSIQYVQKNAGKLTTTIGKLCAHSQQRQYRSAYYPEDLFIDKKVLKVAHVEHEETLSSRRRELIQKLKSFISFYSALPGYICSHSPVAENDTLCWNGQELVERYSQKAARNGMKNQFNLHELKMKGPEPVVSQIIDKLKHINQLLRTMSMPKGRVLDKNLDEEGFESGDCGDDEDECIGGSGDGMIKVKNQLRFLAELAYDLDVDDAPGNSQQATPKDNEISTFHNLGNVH

EC50 [1]: 0.12 nM
EC50 [2]: 0.21 nM
Kd [3]: 1900 nM
Kd [4]: 1 nM
Kd [5]: 0.023 nM
EC50 [7]: 1.7 nM
B1: lipocalin mutein-Fc fusion polypeptide of SEQ ID NO: 45 (Fc fusion)
chain: QDSTSDLIPAPPLSKVPLQQNFQDNQFQGKWYVVGRAGNVGLREDKDPPKMWATIYELKEDKSYDVTNVRFARKKCTYSIGTFVPGSQPGEFTLGQIKSEPGGTANLVRVVSTNYNQHAMVFFKEVYQNREIFFIILYGRTKELTSELKENFIRFSKSLGLPENHIVFPVPIDQCIDGGGGGSGGGGSQDSTSDLIPAPPLSKVPLQQNFQDNQFHGKWYVVGQAGNIRLREDKDPIKMMATIYELKEDKSYDVTMVKFDDKKCMYDIWTFVPGSQPGEFTLGKIKSFPGHTSSLVRVVSTNYNQHAMVFFKFVFQNREEFYITLYGRTKELTSELKENFIRFSKSLGLPENHIVFPVPIDQCIDGGGGGSGGGGSGGGGS[letters of human IgG4 Fc with S228P F234A L235A (EU numbers) not shown]
notes: Biotinylated for the Fc-gamma receptor SPR; also called IgG4Fc-lipocalin mutein fusion polypeptide
binding result [6]: no binding (tested: 100 nM highest concentration of receptor)

EC50 [1]: 0.07 nM
EC50 [2]: 0.13 nM
Kd [3]: 2100 nM
Kd [4]: 1.1 nM
Kd [5]: 0.029 nM
EC50 [7]: 1.72 nM
B2: lipocalin mutein-Fc fusion polypeptide of SEQ ID NO: 44 (Fc fusion)
chain: QDSTSDLIPAPPLSKVPLQQNFQDNQFQGKWYVVGRAGNVGLREDKDPPKMWATIYELKEDKSYDVTNVRFARKKCTYSIGTFVPGSQPGEFTLGQIKSEPGGTANLVRVVSTNYNQHAMVFFKEVYQNREIFFIILYGRTKELTSELKENFIRFSKSLGLPENHIVFPVPIDQCIDGGGGGSGGGGSGGGGS[letters of human IgG4 Fc with S228P F234A L235A (EU numbers) not shown]GGGGSGGGGSGGGGSQDSTSDLIPAPPLSKVPLQQNFQDNQFHGKWYVVGQAGNIRLREDKDPIKMMATIYELKEDKSYDVTMVKFDDKKCMYDIWTFVPGSQPGEFTLGKIKSFPGHTSSLVRVVSTNYNQHAMVFFKFVFQNREEFYITLYGRTKELTSELKENFIRFSKSLGLPENHIVFPVPIDQCIDG
notes: as for B1
binding result [6]: no binding (tested: 100 nM highest concentration of receptor)
